Reference: PubChem BioAssay AID488969 (Vanderbilt High Throughput Screening Facility, 2010)
Values joined by “and” are separate entries in the source; they are usually repeats but may differ in a detail not shown here. Equal values may be shown once. The full ranking holds about 110,000 compounds; the median of “z-score” is about -0.1, and the highest 2% start at about 2. The list shows a part of the results.

Target: Metabotropic glutamate receptor 8 (Rattus norvegicus) (UniProt P70579)
Experiment: rat mGluR8 modulators via GIRK flux, primary screen, cell-based, thallium flux, HTS (AID 488969)
Conditions: HEK293 rat mGluR8, GIRK (G protein-gated inwardly rectifying potassium channel) thallium flux, FluoZin2; at 10 µM; stronger effect = higher value; submaximal glutamate (EC20) added with thallium

Chain of UniProt P70579 (P70579 whole entry, looked up): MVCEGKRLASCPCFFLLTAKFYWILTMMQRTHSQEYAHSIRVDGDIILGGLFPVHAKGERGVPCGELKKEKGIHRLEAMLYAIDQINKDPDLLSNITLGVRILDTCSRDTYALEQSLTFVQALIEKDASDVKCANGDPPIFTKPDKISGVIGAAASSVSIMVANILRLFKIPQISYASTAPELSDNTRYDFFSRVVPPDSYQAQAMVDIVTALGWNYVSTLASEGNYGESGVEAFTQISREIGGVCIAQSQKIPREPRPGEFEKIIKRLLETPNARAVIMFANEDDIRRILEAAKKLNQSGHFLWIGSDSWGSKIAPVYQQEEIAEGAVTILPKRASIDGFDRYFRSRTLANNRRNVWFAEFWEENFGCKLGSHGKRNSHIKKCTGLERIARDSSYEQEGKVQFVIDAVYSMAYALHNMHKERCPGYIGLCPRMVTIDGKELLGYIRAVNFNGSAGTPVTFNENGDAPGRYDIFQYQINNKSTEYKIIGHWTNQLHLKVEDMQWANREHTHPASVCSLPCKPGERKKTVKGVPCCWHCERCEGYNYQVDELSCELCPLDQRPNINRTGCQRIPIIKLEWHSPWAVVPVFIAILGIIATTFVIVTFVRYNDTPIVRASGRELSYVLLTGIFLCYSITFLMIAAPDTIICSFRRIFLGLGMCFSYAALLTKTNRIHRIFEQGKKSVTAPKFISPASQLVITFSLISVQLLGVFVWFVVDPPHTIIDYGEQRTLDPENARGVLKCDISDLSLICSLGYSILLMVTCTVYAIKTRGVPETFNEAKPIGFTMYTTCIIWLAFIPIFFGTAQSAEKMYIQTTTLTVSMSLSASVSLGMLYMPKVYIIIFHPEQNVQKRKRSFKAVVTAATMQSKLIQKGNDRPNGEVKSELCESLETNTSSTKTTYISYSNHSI

Row | SMILES | z-score
1 | COc1cc(/C=N/NC(=O)c2sc(N)c(C#N)c2C)cc(Br)c1O | -0.544
2 | O=[N+]([O-])c1nn(-c2ccc3c(c2)OCCO3)n(O)c1=NC1CCCCC1 | -0.7
3 | O=C(NS(=O)(=O)c1ccc2c(c1)OCCO2)c1ccccc1 | -0.389
4 | O=C(CSc1nc2ccccc2c(=O)n1-c1ccc(F)cc1)Nc1ccc2c(c1)CCC2 | -0.356
5 | CCOc1ccc2nc(NS(=O)(=O)Cc3ccccc3)sc2c1 | 0.192
6 | CCn1cc(C(=O)NC(=S)Nc2cccc(O)c2)cn1 | -0.169
7 | Cc1noc(COc2ccccc2OCC(O)CNC(C)(C)C)n1 (stereo unspecified) | 0.12
8 | CCc1nnc(NC(=O)c2ccc(S(=O)(=O)NC3CCCCC3)cc2)s1 | 0.217
9 | O=C(CCC1CCCCC1)Nc1ncn[nH]1 | 0.302
10 | COc1ccccc1-c1cc(C(=O)N/N=C/c2cccs2)c2ccccc2n1 | -0.163
11 | CC(C)(C)n1nnnc1C(c1ccc(Cl)cc1)N(Cc1cccnc1)Cc1ccco1 (stereo unspecified) | 0.14
12 | O=C(Cn1c(NCCCO)nc2ccccc21)c1ccco1 | -0.0827
13 | O=C(CSc1nc(-c2ccccc2)nc2c1CCCC2)N1CCOCC1 | -0.533
14 | O=C(CN1C(=O)c2ccccc2C1=O)Nc1cccc(S(=O)(=O)Nc2ccccc2Cl)c1 | -0.343
15 | Cc1ccccc1Nc1nc(N)nc(CSc2nc3ccccc3s2)n1 | 0.0755
16 | O=[N+]([O-])c1ccc(N2CCN(S(=O)(=O)c3ccccc3[N+](=O)[O-])CC2)cc1N1CCc2ccccc2C1 | -0.00158
17 | CC(=O)c1cccc(NC(=O)CSc2ccc(-c3ccc4c(c3)OCO4)nn2)c1 | -0.27
18 | CCCCNc1nc2c(c(=O)n(C)c(=O)n2C)n1Cc1cccc(OC)c1 | -1.56
19 | COc1ccc(N2CCN(C(=O)CN(Cc3ccc(Cl)cc3)S(C)(=O)=O)CC2)cc1 | 0.0425
20 | COc1ccc2[nH]c(C)c(C(=O)CN3CC(C)OC(C)C3)c2c1 (stereo unspecified) | 2.96
21 | CCOC(=O)c1[nH]c(C)c(CCC(=O)O)c1C | -0.119 and -0.103
22 | CS(=O)(=O)N1CCN(c2cccc(Cl)n2)CC1 | 0.0109
23 | COC(=O)c1nc2ccccc2s1 | -0.349
24 | Cn1nnnc1SCSc1nnnn1C | -0.163

Row | SMILES | z-score
25 | CCCC1(CCC)C(=O)NC(=NCCc2ccc(OC)c(OC)c2)NC1=O | -0.0922
26 | CCOC(=O)/C(C#N)=C1\C=CN(C)C(C)=N1 | -0.205
27 | Cc1cc(Nc2nnnn2-c2ccccc2)n(-c2ccc(Cl)cc2)n1 | -0.187
28 | O=C(NC1CCCC1)C(c1ccsc1)N(C(=O)Cc1cccs1)c1cccc(F)c1 (stereo unspecified) | -0.187
29 | O=C(CNC(=O)c1ccc(N2C(=O)c3ccccc3C2=O)cc1)OCC(=O)c1ccc(Cl)cc1 | 0.702
30 | Cc1cc(Br)c(Cl)cc1NC(=O)CN1C(=O)C2C3CC(c4ccccc4)C(C3)C2C1=O (stereo unspecified) | -0.22
31 | CC(NC(=O)COc1ccc(Br)cc1)C(=O)O (stereo unspecified) | -0.000757
32 | Cc1oc(-c2ccc(Cl)cc2)nc1CN1CCCC(C(=O)N2CCN(C(=O)c3ccco3)CC2)C1 (stereo unspecified) | -0.175
33 | O=C1CCCc2nc3nc4ccccc4n3cc21 | -0.489
34 | FC(F)(F)c1nc2ccccc2n2c(-c3c(Cl)cccc3Cl)nnc12 | -0.39
35 | Cc1ccc(-c2[nH]nc3c2C(c2ccccc2OC(=O)N2CCOCC2)C(C#N)=C(N)O3)cc1 (stereo unspecified) | 0.221
36 | Cn1c(-c2ccc(N)cc2)nc2ccccc21 | -0.294
37 | CCC1S/C(=N\S(=O)(=O)c2cccs2)N(C2CCCCC2)C1=O (stereo unspecified) | 0.599
38 | O=C(Nc1ccccc1)c1sc(N2CCOCC2)nc1-c1ccccc1 | -0.556
39 | COC(=O)c1sc2nc(-c3ccco3)ccc2c1N | 2.53
40 | O=C1N2CN(C(c3ccccc3)c3ccccc3)CN=C2SC1(CO)CO | -0.197
41 | O=C(Oc1cccc2cccnc12)c1cccs1 | -0.532
42 | Cc1ccc(S(=O)(=O)N/N=C/c2cccc(OC3CSC3)c2)cc1 | -0.12
43 | CC(C(=O)N1c2ccccc2CCc2ccccc21)n1nnc(-c2ccc(N(C)C)cc2)n1 (stereo unspecified) | 0.255
44 | C/C(=N\NC(=O)CSc1nc(C)cc(C)n1)c1cccc([N+](=O)[O-])c1 | -0.26
45 | COCCCNC(=O)c1cccc(C(=O)NCCCOC)c1 | 0.176
46 | O=S(=O)(c1ccc2c(c1)OCCO2)N1CCC(c2nc3ccc(Cl)cc3[nH]2)CC1 | -1.35
47 | CC1CN(Cc2ccc(C#N)cc2Cl)CC(C)O1 (stereo unspecified) | 0.188
48 | c1ccc(-c2nc3ccccc3nc2-c2ccccn2)nc1 | -0.18

Row | SMILES | z-score
49 | O=C(CCNc1ccc(F)c(Cl)c1)c1ccco1 | -0.0492
50 | O=C1CCCC2=C1C(c1ccsc1)CC(=O)N2c1ccccc1 (stereo unspecified) | -0.654
51 | COc1ccccc1N1CCN(C(=O)C(Cc2ccccc2)NC(=O)C2CCCCC2)CC1 (stereo unspecified) | -0.152
52 | O=C(Cn1cnc2c(nnn2-c2ccc(F)cc2)c1=O)N1CCCc2ccccc21 | -0.225
53 | Cc1ccccc1-c1nc(CN2CCC(C(=O)NCC3CCCO3)CC2)c(C)o1 (stereo unspecified) | -0.924
54 | Cc1cccc(NC(=O)/C(=C/c2cccc([N+](=O)[O-])c2)NC(=O)c2cccs2)c1 | -0.136
55 | COc1ccc(C(=O)Nc2c(Cl)cc(Cl)cc2C(=O)NCc2ccco2)cc1 | 0.018
56 | COc1ccc(S(=O)(=O)Nc2ccc(F)c(F)c2)cc1Cl | 0.0596
57 | CCc1ccc(CCC(=O)Nc2nc(CC(C)=O)ns2)o1 | -0.328
58 | CCc1cccc2c(C=C(C#N)C#N)cn(CC(=O)N3CCCCC3)c12 | 0.0776
59 | Cc1c(O)nc(SCC(=O)Nc2ccc3c4c(cccc24)CC3)n(-c2ccccc2)c1=O | -0.768
60 | Cc1nn2cc(-c3ccccc3)nc2[nH]c1=O | -0.356
61 | CCOCCn1c(-c2ccc(OC)cc2)nc2ccccc21 | -0.61
62 | O=C(c1ccc(S(=O)(=O)N2CCCCC2)cc1)N1CCN(Cc2ccc3c(c2)OCO3)CC1 | -0.213
63 | Cc1cccc(OCCCOc2cccc3cccnc23)c1C | -0.0288
64 | O=C1NC(=O)/C(=C\c2ccccc2Oc2ccc(F)c(F)c2)S1 | -0.312
65 | O=C(O)c1ccccc1CSc1nc2ccccc2o1 | -0.428
66 | Cn1c(=O)n(CCC(=O)O)c2ccccc21 | 0.0564
67 | Cc1ccc(Cl)cc1N1CCN(c2cccc[n+]2C)CC1 | -0.306
68 | COC(=O)c1ccccc1NC(=O)C1CCN(S(C)(=O)=O)CC1 | 0.371
69 | Cc1sc2nnn(CC(=O)N3CCN(C(=O)c4ccco4)CC3)c(=O)c2c1C | 0.22
70 | COc1cc(C)c(Cl)c(C)c1S(=O)(=O)NCc1cccnc1 | 0.0631
71 | COc1ccc(OC)c(C(=O)COC(=O)c2ccccc2O)c1 | 0.0993
